Values joined by “and” are separate entries in the source; they are usually repeats but may differ in a detail not shown here. Identical values can stand only once. Among all 420,000 compounds or so, about 64,000 (15%) were called active. The inconclusive results got no clear call from the source; some entries with a clear call stand among them for comparison. The call rests on the fitted dose curve; in most records, active means well fitted inhibition curve with a large enough effect; inconclusive means small, poorly fitted or top-dose-only effect; inactive means flat fitted curve, though single readings scatter. Potencies of inconclusive entries are doubtful fits and often do not repeat.
Assay: qHTS for Inhibitors of human tyrosyl-DNA phosphodiesterase 1 (TDP1): qHTS in cells in absence of CPT; further: nearly all actives have a fitted effect of over 55% in size
Details: DT40 Tdp1-/- hTDP1 cells, no CPT, ATP luminescence, 48 h; series mostly up to 46.2 µM
Outline: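 Luminescent ATP content (CellTiter-Glo) served as the growth readout. Knockout chicken DT40 cells expressing human TDP1 were exposed to compounds without camptothecin for a minimum 48 hr at 37 °C.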
Potency means the concentration at half of the fitted maximal effect; tags describe the fitted curve by direction and shape.

Row | Structure (SMILES) | Potency
1 | Cc1ccc(OCCNC(=O)c2ccc(COc3ccccc3)o2)cc1 | inconclusive: 13 µM [inhibitor, single point]
2 | COC(=O)CNC(=O)c1cc(-c2ccncc2)nc2ccc(C)cc12 | inactive
3 | O=C(CCS(=O)(=O)c1nc(-c2ccc3c(c2)OCO3)cc(C(F)(F)F)n1)Nc1ccc(F)c(Cl)c1 | active: 5.8 µM
4 | CCOc1ccc(N2CC(C(=O)NCCc3ccc(S(N)(=O)=O)cc3)CC2=O)cc1 (configuration not stated) | inactive
5 | O=C(NC1CCCCC1)N(CCN1CCOCC1)Cc1cc2cc3c(cc2[nH]c1=O)OCCO3 | inconclusive: 9.2 µM [inhibitor, partial curve]
6 | Clc1ccc(-c2nnc(Sc3nc4ccccc4o3)c3ccccc23)cc1 | active: 16.4 µM
7 | CN(C)c1ccc(C(CNS(=O)(=O)c2ccc(F)cc2)N2CCCC2)cc1 (configuration not stated) | inconclusive: 20.6 µM [inhibitor, single point]
8 | Cc1cccc(C)c1N(CC(O)Cn1c2ccccc2c2ccccc21)S(C)(=O)=O (configuration not stated) | inconclusive: 25.9 µM [inhibitor, single point]
9 | C=CCN(CC=C)C(=O)C1CCN(S(=O)(=O)c2ccc(N3CCCC3=O)cc2)CC1 | inconclusive: 16.4 µM [inhibitor, partial curve]
10 | CCCCNC(=O)c1ccccc1C(=O)NCCCC | active: 29.1 µM
11 | COC(=O)[C@@]1(Sc2ccccc2)CC(=O)N[C@@H]1c1ccccc1 | inactive
12 | CCn1c(=O)c(C(=O)NCc2ccc(Cl)cc2)c(O)c2ccccc21 | inconclusive: 29.1 µM [inhibitor, single point]
13 | Cc1cc(C)c2c(=O)n(CC(=O)NCCCN3CCOCC3)sc2n1 | active: 6.51 µM
14 | COc1ccc(Nc2ncc(C(=O)Nc3cc(Cl)c(OC)cc3OC)c3ccccc23)cc1 | inconclusive: 8.2 µM [inhibitor, partial curve]
15 | C/C(=N\NC(=O)c1nnn(-c2nonc2N)c1-c1ccc2c(c1)OCO2)c1cccs1 | inconclusive: 14.6 µM [inhibitor, partial curve]
16 | O=c1cc(CN2CCN(c3cccc(Cl)c3)CC2)c2cc3c(cc2o1)CCCC3 | inconclusive: 29.1 µM [inhibitor, single point]
17 | Cc1cc(C)cc(NC(=O)CN2CCc3cc4c(cc3C2C)OCCCO4)c1 (configuration not stated) | inconclusive: 29.1 µM [inhibitor, single point]
18 | CCCCNC(=S)N(CCCN(C)C)Cc1cc2cc3c(cc2[nH]c1=O)OCO3 | inconclusive: 23.1 µM [inhibitor, single point]
19 | COc1ccc(C(CC(=O)N2CCCC(C)C2)c2c(OC)cc(OC)c3c(-c4ccccc4)cc(=O)oc23)cc1 (configuration not stated) | active: 14.6 µM
20 | CCC(=O)NC(=S)Nc1ccc(S(=O)(=O)NC2CCCCC2)cc1 | inconclusive: 14.6 µM [inhibitor, partial curve]
21 | COc1ccc(N2CCN(C(=O)c3ccc(Nc4nc5ccccc5n5nnnc45)cc3)CC2)cc1 | inconclusive: 23.1 µM [inhibitor, partial curve]
22 | CCN1CCCC1CNC(=O)c1c(O)c2c([nH]c1=O)CCCC2 (configuration not stated) | inactive
23 | CC(Oc1cccc(Br)c1)C(=O)Nc1cccc(S(=O)(=O)N2CCOCC2)c1 (configuration not stated) | inconclusive: 16.4 µM [inhibitor, single point]
24 | COc1ccc(C(=O)Nc2ccc(C3=NNC(=O)CC3C)cc2NC(=O)c2ccc(OC)cc2)cc1 (configuration not stated) | active: 23.1 µM

Row | Structure (SMILES) | Potency
25 | CCOC(=O)Nc1ccc2c(c1)nc(CN1CCN(C(C)=O)CC1)n2C | inactive
26 | Cc1cc(C)cc(N(C(=O)CNC(=O)c2ccco2)C(C(=O)NC2CCCCC2)c2ccncc2)c1 (configuration not stated) | inactive
27 | C[C@@H]1CN([C@H](C)CO)C(=O)c2cc(Br)cnc2O[C@H]1CN(C)Cc1ccccc1 | inconclusive: 0.731 µM [inhibitor, full curve, poor fit]
28 | NC(=NCc1ccccc1)NC(=O)c1nc(Cl)c(N)nc1N | active: 17.6 µM and active: 23.1 µM
29 | Cc1ccc(N2C(=O)C3C(C2=O)C(C(=O)c2ccc(Cl)cc2)N2CCCC32)cc1 (configuration not stated) | inactive
30 | CC(C)(CO)[C@@H](O)C(=O)NCCCC(=O)O | inactive
31 | O=C(O)C1CCCN1C1=NS(=O)(=O)c2ccccc21 (configuration not stated) | inactive
32 | CCOC(=O)CNC(=O)c1cc2c(=O)n3cccc(C)c3nc2s1 | inactive
33 | COC(=O)c1c(-c2ccc(OC)cc2)oc2ccc(-c3cc(OC)c(OC)c(OC)c3)cc12 | inconclusive: 16.4 µM [inhibitor, single point]
34 | CCOC(=O)c1cn(-c2c(Cl)cccc2Cl)c2cc(Cl)c([N+](=O)[O-])cc2c1=O | active: 16.4 µM
35 | CN(C)c1cc(Cl)c2nonc2c1N | inactive
36 | CN(C)c1ccc(-c2csc(C(C)(O)c3ccccc3)n2)cc1 (configuration not stated) | active: 16.4 µM
37 | CC1CCN(c2c(NCc3ccc(C(=O)NCC4COc5ccccc5O4)cc3)c(=O)c2=O)CC1 (configuration not stated) | inconclusive: 16.4 µM [inhibitor, single point]
38 | CC(C)n1nccc1N(Cc1ccc(C#N)cc1)S(=O)(=O)c1ccccc1 | inconclusive: 29.1 µM [inhibitor, single point]
39 | CCOC(=O)CC1C(=O)NCCN1S(=O)(=O)c1cccc(C(F)(F)F)c1 (configuration not stated) | inactive
40 | CCCCCC(O)C=CC1C(O)CC(O)C1CC=CCCCC(=O)O (configuration not stated) | inactive
41 | CCc1nnc(NC(=O)c2cccc(C(=O)Nc3nnc(CC)s3)n2)s1 | active: 0.0206 µM
42 | Cc1ccc(-c2ccc(/C=N/N3C(=O)C4C5C=CC(CC5)C4C3=O)o2)c([N+](=O)[O-])c1 (configuration not stated) | inconclusive: 25.1 µM [inhibitor, single point]
43 | CC(=O)c1ccc[n+](CC(=O)c2ccc(F)cc2)c1 | inactive
44 | Cc1nn(C)c(C(=O)N/N=C/c2cccc3ccccc23)c1Cl | inactive
45 | N#Cc1c(Cl)nsc1NN | inconclusive: 18.4 µM [inhibitor, partial curve, poor fit]
46 | OC1CCCC1NCc1ccnc2cc(Cl)ccc12 (configuration not stated) | active: 16.4 µM
47 | CCOC(=O)c1[nH]c2ccccc2c1NC(=O)c1cc(OC)c(OC)c(OC)c1 | inconclusive: 11.6 µM [inhibitor, partial curve, poor fit]
48 | O=C1CS/C(=N/N=C/c2ccccc2OS(=O)(=O)c2ccccc2)N1 | active: 1.03 µM

Row | Structure (SMILES) | Potency
49 | Cc1cc(C)nc(SC(C)C(=O)N/N=C/c2cccs2)n1 (configuration not stated) | inconclusive: 11.6 µM [inhibitor, partial curve, poor fit]
50 | CCOc1ccccc1NC(=O)CSc1ncc(S(=O)(=O)c2ccc(C(C)(C)C)cc2)c(=O)[nH]1 | inactive
51 | Cc1cccc(CCN2C(N(C)C)=NC[C@@H]2CC(C)C)c1 | inconclusive: 16.4 µM [inhibitor, single point]
52 | CCO[C@H]1OC(C(N)=O)=C[C@@H](c2csc3ccccc23)[C@@H]1CCCO | inactive
53 | O=C1CCCN1CCCNC(=S)Nc1ccc(F)cc1 | inactive
54 | COc1cc(CNC(C)(C)CO)cc(Br)c1OCc1ccccc1 | inconclusive: 23.1 µM [inhibitor, single point]
55 | Cc1ccc(S(=O)(=O)N2CCC(=O)N(C(COCc3cccc(C)c3)Cc3ccccc3)CC2)cc1 (configuration not stated) | inconclusive: 29.1 µM [inhibitor, single point]
56 | O=C(Cn1cnc2c(nnn2Cc2ccc(Cl)cc2)c1=O)OCc1ccccc1 | inconclusive: 29.1 µM [inhibitor, single point]
57 | O=C1c2ccccc2S(=O)(=O)c2cc(N3CCN(c4ccccc4)CC3)ccc21 | active: 16.4 µM
58 | CCCCNC(=O)CCn1c(=O)c2cccn2c2ccc(F)cc21 | inconclusive: 25.9 µM [inhibitor, single point] and inconclusive: 32.6 µM [inhibitor, single point]
59 | COC(=O)c1ccc(-n2cnc3ccccc32)nc1 | inactive
60 | O=c1[nH]c(=S)[nH]cc1Oc1ccc(Cl)cc1Cl | inactive
61 | COc1ccc(-c2cc([C@H]3[C@H]4C=CC[C@@H](C)[C@@H]4C(=O)N3Cc3ccccc3)ccc2F)cc1 | active: 14.6 µM
62 | Cc1ccc(NC(=O)COc2coc(CN3CCN(Cc4ccccc4)CC3)cc2=O)cc1 | inconclusive: 29.1 µM [inhibitor, single point]
63 | CCOC(=O)C1(Cc2ccccc2C)CCCN(C(=O)c2cc(CC)nn2C)C1 (configuration not stated) | inconclusive: 29.1 µM [inhibitor, single point]
64 | CCOc1cccc(C(=O)Nc2ccc(-c3nc4cc(C)cc(C)c4o3)cc2)c1 | inactive
65 | COCCNC(=O)C(NC(=O)C1CCCCC1)C(C)C (configuration not stated) | inactive
66 | NS(=O)(=O)c1ccc(CCNc2nc3c(-c4cccc(F)c4)nnn3c3ccccc23)cc1 | active: 11.6 µM
67 | Cc1ccccc1Cn1c(=O)n(CCC(=O)NCc2ccc3c(c2)OCO3)c(=O)c2ccccc21 | inconclusive: 29.1 µM [inhibitor, partial curve]
68 | Cc1ccc(C)c(S(=O)(=O)N2CC(=O)Nc3ccccc32)c1 | inactive
69 | COc1ccc(N(C(C)=O)C2SC(=O)N(c3ccccc3)C2=O)cc1 (configuration not stated) | inconclusive: 28.2 µM [inhibitor, single point]
70 | CC(=O)NC1=NC(=O)/C(=C/c2cn(C(C)=O)nc2-c2ccccc2)S1 | inconclusive: 29.1 µM [inhibitor, single point]
71 | CCOC(=O)c1ccccc1NC(=O)c1nn(-c2ccc(C)cc2)c(=O)n(C)c1=O | inconclusive: 10.3 µM [inhibitor, partial curve, poor fit]
72 | Cc1ccc2oc(=O)n(Cc3ccc(OC(C)C)cc3)c2c1 | inconclusive: 25.9 µM [inhibitor, single point]

— PubChem BioAssay AID686978 (National Center for Advancing Translational Sciences (NCATS), 2013)
